Test results taken from PubChem BioAssay AID488969 (Vanderbilt High Throughput Screening Facility, 2010).
Over roughly 110,000 compounds, “z-score” has its median near -0.1; the highest 2% begin near 2. The list shows a part of the results. Active and inactive are the calls of the source.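 The calls were made as follows: active = z-score in the third read window above 3 or below -3; inactive = the rest.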

Each compound was assayed against Metabotropic glutamate receptor 8 (Rattus norvegicus) (UniProt P70579) (assay: rat mGluR8 modulators via GIRK flux, primary screen, cell-based, thallium flux, HTS (AID 488969)). Settings: HEK293 rat mGluR8, GIRK (G protein-gated inwardly rectifying potassium channel) thallium flux, FluoZin2; at 10 µM; stronger effect = higher value; submaximal glutamate (EC20) added with thallium.
Sequence of UniProt P70579 (P70579 whole entry, looked up): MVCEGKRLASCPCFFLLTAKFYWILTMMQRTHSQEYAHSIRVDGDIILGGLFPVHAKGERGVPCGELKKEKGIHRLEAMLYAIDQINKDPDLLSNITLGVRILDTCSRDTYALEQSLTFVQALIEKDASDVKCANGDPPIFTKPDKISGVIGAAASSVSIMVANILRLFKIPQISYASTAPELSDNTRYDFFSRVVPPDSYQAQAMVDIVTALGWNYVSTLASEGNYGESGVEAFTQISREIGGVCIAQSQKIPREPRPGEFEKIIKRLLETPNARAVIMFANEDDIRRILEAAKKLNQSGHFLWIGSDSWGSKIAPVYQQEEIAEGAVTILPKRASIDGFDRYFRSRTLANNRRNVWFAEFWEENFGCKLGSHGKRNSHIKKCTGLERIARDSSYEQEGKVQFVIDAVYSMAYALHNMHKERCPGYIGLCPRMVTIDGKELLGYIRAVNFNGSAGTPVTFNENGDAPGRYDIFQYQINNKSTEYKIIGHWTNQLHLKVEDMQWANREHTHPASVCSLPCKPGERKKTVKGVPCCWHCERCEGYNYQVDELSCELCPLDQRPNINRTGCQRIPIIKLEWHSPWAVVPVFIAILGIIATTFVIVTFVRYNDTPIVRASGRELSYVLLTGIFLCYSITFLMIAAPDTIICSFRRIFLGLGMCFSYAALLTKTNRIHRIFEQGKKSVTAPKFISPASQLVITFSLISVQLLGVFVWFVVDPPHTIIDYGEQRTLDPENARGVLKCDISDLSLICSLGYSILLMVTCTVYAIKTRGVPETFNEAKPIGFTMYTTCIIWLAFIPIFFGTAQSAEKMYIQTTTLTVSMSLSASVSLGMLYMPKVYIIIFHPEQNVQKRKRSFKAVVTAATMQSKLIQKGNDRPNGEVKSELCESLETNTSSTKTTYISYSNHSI

Row | Compound | z-score
1 | N#CC1=C(N)Oc2n[nH]c(-c3ccc(F)cc3)c2C1c1cccnc1 (centres undefined) | -0.85
2 | CN(Cc1cn(-c2ccccc2)nc1-c1ccc(F)cc1)C(=O)CCC(=O)O | 0.0103
3 | Cc1ccc2nc(SCC(=O)Nc3ccc(C)c([N+](=O)[O-])c3)[nH]c2c1 | 0.188
4 | O=C(CSc1ccc2nnc(-c3cccnc3)n2n1)NCc1ccco1 | -0.113
5 | O=C(CCn1cccc1)Nc1cc(F)ccc1F | -0.224
6 | COc1cccc(NC(=O)C2CCN(c3ncccn3)CC2)c1 | 0.0761
7 | O=C(CCCCC(=O)NCc1cccs1)NCc1cccs1 | 0.0638
8 | O=C1c2ccccc2C(=O)N1CCCn1c(=O)oc2ccccc21 | -0.0485
9 | COc1ccc(NC(=O)c2nnn(Cc3cccc(F)c3)c2N)c(OC)c1 | -0.0724
10 | CCOC(=O)C1=C(COc2ccc(F)cc2Cl)NC(=O)NC1c1cc(C)ccc1C (centres undefined) | -0.0146
11 | COC(=O)CC1C(=O)NC2CCCCC2N1C(=O)c1ccccc1 (centres undefined) | 0.157
12 | COC(=O)c1ccccc1NC(=O)C1CCCC1 | -0.824
13 | COC(=O)c1ccc(CO/N=C(\NC(C)=O)c2nonc2NC(C)=O)cc1 | -0.173
14 | Cc1ccc(NC(=O)[C@@H](NC(=O)c2cccc(S(=O)(=O)N3CCOCC3)c2)C(C)C)cc1C | -0.248
15 | O=C(Nc1cccc(C(F)(F)F)c1)c1ccccc1NC(=O)C1CCCCC1 | 0.458
16 | Cc1cc(C(=O)Nc2c(C)cccc2C)n(-c2ccccc2)n1 | -0.132
17 | Cc1ccc(S(=O)(=O)CC(=O)NC2CC2)cc1 | -0.0321
18 | O=C(Nc1ccccc1C(=O)NC1CCCCC1)c1ccco1 | -0.17
19 | COc1ccccc1NC(=S)NNC(=O)c1cc(C)nn1C | -0.259
20 | COc1cc(C2NC(=O)NC(C)=C2C(=O)OC(C)C)ccc1OC(=O)c1ccco1 (centres undefined) | -0.321
21 | COC(=O)c1sc2nc(CSc3nc4ccc(C)cc4[nH]3)[nH]c(=O)c2c1C | -0.816
22 | COc1cc(C2C3C(=O)N(c4ccc(F)cc4)C(=O)C3ON2c2ccccc2)ccc1O (centres undefined) | -0.474
23 | Cc1c(C(=O)N2CC(C)OC(C)C2)sc2nc(-c3ccccc3)cn12 (centres undefined) | -0.0847

Row | Compound | z-score
24 | COc1ccc(/C=C(\NC(=O)c2ccccc2)C(=O)N/N=C/c2ccncc2)cc1 | 0.162
25 | CCOC(=O)c1c(NC(N)=O)sc(C)c1C | -0.487
26 | Cc1ccc(-n2ncc3c(=O)n(CC(=O)NC4CCCC4)cnc32)cc1C | -0.127
27 | O=C(Nc1ccccc1C(=O)O)c1ccccc1 | 0.14
28 | Cc1ccc(-c2nc(NCc3ccco3)c3ccccc3n2)cc1 | 0.0674
29 | COc1ccccc1N1CCN(C(=O)C(C)N(c2ccc(C)c(C)c2)S(C)(=O)=O)CC1 (centres undefined) | -0.0107
30 | O=C(Nc1cccn(Cc2c(Cl)cccc2Cl)c1=O)c1ccc(Cl)cc1Cl | 0.00481
31 | Cc1ccc2c(c1)SC1=NC(c3ccccc3)(C(F)(F)F)NC(=O)N12 (centres undefined) | 0.232
32 | COc1ccc(C2CC(=O)C(C=NCCO)=C(O)C2)cc1OC (centres undefined) | -0.0297
33 | O=C(COC(=O)c1ccc(S(=O)(=O)NCc2ccco2)cc1)Nc1ncc(Cl)cc1Cl | 0.00713
34 | O=C(NCc1ccco1)C1CC(=O)N(CCc2ccccc2)C1 (centres undefined) | -0.445
35 | COC(=O)Cc1c(C)nc2nc(-c3ccc(Cl)cc3)[nH]n2c1=O | -0.123
36 | O=C(c1cc2ccccn2n1)N1CCCC1 | -0.155
37 | Cc1cccc[n+]1C1C(c2ccccc2)C(C#N)=C(C(=C=[N-])C#N)NC1(O)C1CC1 (centres undefined) | 0.0116
38 | CCOC(=O)CSc1nnc(CNc2ccc(Cl)cc2)n1Cc1ccccc1 | -0.258
39 | O=C(Nc1ccccc1C(=O)O)c1ccc(NC(=O)c2ccc(Br)o2)cc1 | active: -3.02
40 | COC(=O)CSc1nc(C)c(Oc2ccccc2)c(=O)[nH]1 | -0.000796
41 | Cc1onc(-c2ccccc2)c1C(=O)Nc1cc(C(F)(F)F)ccc1N1CCOCC1 | 0.981
42 | CCCCNC(=O)CN1CCC2(O)CCCCC2C1c1ccccc1OC (centres undefined) | -0.626
43 | Cc1cccc(S(=O)(=O)NNC(=O)c2sc(C)nc2C)c1 | -0.183
44 | COc1cc(/C=C/C(=O)NNc2c(F)c(F)cc(F)c2F)ccc1OC(F)F | -0.988
45 | C=CCOC(=O)C1=C(C)Nc2[nH]c(=O)[nH]c(=O)c2C1c1cccc(OC)c1 (centres undefined) | 0.219
46 | CC(NC(=O)COc1ccccc1)C(=O)NC1=NCCS1 (centres undefined) | active: 3.96

Row | Compound | z-score
47 | Cc1nc(SCC(=O)c2ccccc2)c([N+](=O)[O-])[nH]1 | -0.0328
48 | COc1ccccc1C1/C(=C(/O)c2ccc(OC(C)C)cc2)C(=O)C(=O)N1c1cc(C)on1 (centres undefined) | -1.62
49 | CCN(CC)S(=O)(=O)c1cccc(C(=O)NCCCN2CCOCC2)c1 | 0.102
50 | COc1cccc(C(Nc2ccccn2)c2c(NC(=O)c3ccco3)sc(C)c2C)c1 (centres undefined) | -0.418
51 | COc1ccc(Cn2c(C)c(C)c(C#N)c2NC(=O)Nc2ccc(F)cc2)cc1 | -0.265
52 | CCc1ccc(C2NC(c3ccc(CC)cc3)C([N+](=O)[O-])C(C)(C)C2[N+](=O)[O-])cc1 (centres undefined) | -0.247
53 | CCOC(=O)c1cnc(-c2ccccc2)[nH]c1=O | -0.0836
54 | Cc1cccc(OCc2nc(C#N)c(N3CC(C)CC(C)C3)o2)c1 (centres undefined) | -0.118
55 | COc1ccc(CN2CC(C(=O)NCCCN3CCN(C)CC3)CC2=O)cc1 (centres undefined) | -0.0662
56 | C=CCNC(=S)NNC(=O)CCC(O)CCCCC (centres undefined) | 0.312
57 | O=C(CN1CCC(n2nnc3cc(C(F)(F)F)ccc32)CC1)Nc1ccc2c(c1)CCC2 | -0.194
58 | CC(=O)Nc1ccc(S(=O)(=O)NCCSCc2ccc(Cl)cc2Cl)cc1 | 0.0285
59 | Cc1ccc(CSCCC(=O)NCCc2ccc(Cl)cc2)cc1 | 0.0352
60 | O=C(NC1(C(F)(F)F)N=C(c2ccccc2)NC1=O)c1ccccc1F (centres undefined) | -0.0803
61 | CC(C)(C)c1ccc(S(=O)(=O)Nc2cccc(C3OCCCO3)c2)cc1 | -0.207
62 | O=C(CSc1nnc(-c2ccccc2Cl)o1)Oc1ccc(Br)cc1 | -0.585
63 | CCOC(=O)c1sc(NC(=O)c2cc3n(n2)C(C(F)(F)F)CC(c2cccs2)N3)c(C(=O)OCC)c1C (centres undefined) | -0.126
64 | Cc1ccc(CNC(=O)Cn2cccc2C(=O)c2ccccc2)cc1 | 0.478
65 | CCS(=O)(=O)N1CCCC(C(=O)NCCCOC)C1 (centres undefined) | 1.06
66 | CCOC(=O)c1cnc(SCc2ccc(C)cc2)nc1N | 0.367
67 | CCCCn1c(SCc2nnc(-c3ccccc3)o2)nc2c1c(=O)n(C)c(=O)n2C | -1.34
68 | Cc1ccc(Nc2nnns2)cc1 | 0.788
69 | CCOC(=O)c1cnc(SC)nc1Oc1cccc(NS(=O)(=O)c2ccccc2)c1 | 1.2
